# Among all 310,000 compounds or so, about 2,200 (0.71%) showed an effect of 50% or more. The effect is printed as a negative number. Some of the results follow.
# Target: human ether-à-go-go-related gene (hERG) potassium channel (human, UniProt Q12809)
# Assay: primary screen, population patch clamp on CHO cells stably expressing hERG
# Sequence of human ether-à-go-go-related gene (hERG) potassium channel (Q12809 whole entry, looked up): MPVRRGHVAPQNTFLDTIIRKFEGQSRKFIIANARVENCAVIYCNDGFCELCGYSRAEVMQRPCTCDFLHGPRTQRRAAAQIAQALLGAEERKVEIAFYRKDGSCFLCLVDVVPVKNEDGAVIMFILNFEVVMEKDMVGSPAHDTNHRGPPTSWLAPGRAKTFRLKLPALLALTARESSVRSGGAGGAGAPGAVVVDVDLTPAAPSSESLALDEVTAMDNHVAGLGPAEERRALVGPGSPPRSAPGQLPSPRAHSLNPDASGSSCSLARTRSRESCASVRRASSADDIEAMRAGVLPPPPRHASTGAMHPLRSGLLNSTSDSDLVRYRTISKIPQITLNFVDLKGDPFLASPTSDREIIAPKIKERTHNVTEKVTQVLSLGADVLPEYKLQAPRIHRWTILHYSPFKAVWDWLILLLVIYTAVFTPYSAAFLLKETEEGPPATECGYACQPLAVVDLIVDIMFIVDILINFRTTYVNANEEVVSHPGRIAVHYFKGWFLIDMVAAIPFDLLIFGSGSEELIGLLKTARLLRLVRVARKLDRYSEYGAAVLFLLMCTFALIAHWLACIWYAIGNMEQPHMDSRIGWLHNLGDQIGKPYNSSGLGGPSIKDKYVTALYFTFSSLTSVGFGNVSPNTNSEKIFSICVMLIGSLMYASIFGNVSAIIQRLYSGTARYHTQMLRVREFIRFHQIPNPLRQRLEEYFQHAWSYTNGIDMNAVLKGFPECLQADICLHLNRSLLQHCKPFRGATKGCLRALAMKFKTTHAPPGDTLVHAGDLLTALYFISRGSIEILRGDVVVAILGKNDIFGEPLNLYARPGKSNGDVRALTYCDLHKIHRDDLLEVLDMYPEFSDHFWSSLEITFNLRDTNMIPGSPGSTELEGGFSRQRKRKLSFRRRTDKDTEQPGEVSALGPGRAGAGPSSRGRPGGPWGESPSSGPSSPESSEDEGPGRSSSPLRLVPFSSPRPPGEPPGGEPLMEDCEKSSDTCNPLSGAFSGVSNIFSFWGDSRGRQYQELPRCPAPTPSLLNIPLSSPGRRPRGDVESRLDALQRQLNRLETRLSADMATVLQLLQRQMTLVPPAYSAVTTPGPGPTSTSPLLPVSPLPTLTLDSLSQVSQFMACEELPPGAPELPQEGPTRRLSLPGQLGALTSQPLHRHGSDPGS
row,Structure (SMILES),"hERG current change (%, negative = inhibition) at 1uM"
1,CC(C)OCCCNc1ncnc2c1[nH]c1ccc(F)cc12,9.01%
2,COc1cc(NC(=O)c2cccs2)ccc1NC(=O)c1ccco1,18.5%
3,CCOC(=O)C1=C(N)N2C(=O)C(C)SC2=C(C(=O)OCC)C1c1ccccc1 (stereo not shown),9.84%
4,COc1ccc(NC(=O)CN(C)C(C)C(=O)NC(=O)NC2CCCCC2)cc1 (stereo not shown),-2.47%
5,CCOc1ccc(C(=O)OCC(=O)NC2CCCC2)cc1OCC,11.8%
6,CCn1c(SCc2cccnc2)nnc1-c1c[nH]c2ccccc12,-5.12%
7,CCCn1nc(NC(=O)CC(C)C)c2cc3ccccc3nc21,11.3%
8,CCC(NC(=O)Nn1cnnc1)(C(F)(F)F)C(F)(F)F,12.3%
9,CC1CCC2(CC1)NC(=O)N(NC(=O)c1cccs1)C2=O (stereo not shown),7.75%
10,NC(=O)/C=C\C(=O)Nc1cccc(C(F)(F)F)c1,1.44%
11,O=C(NCc1ccco1)C(c1ccc(F)cc1)N(C(=O)Cc1cccs1)c1cccnc1 (stereo not shown),14.4%
12,COc1cc(/C=N/NC(=O)c2cc(C)n(-c3ccc(F)cc3)c2C)cc(OC)c1O,-1.94%
13,Cc1ccc(C(=O)CSc2nnc(COc3ccccc3)o2)cc1,13.4%
14,Cl.Cn1c(=O)c2c(nc(N3CCOCC3)n2CCNC2=NCCC2)n(C)c1=O,11%
15,O=C(c1cccc(Br)c1)N1CCN(C(=O)c2cccc(Br)c2)CC1,-3.78%
16,C=CCc1cccc(/C=N/n2cnnc2)c1O,0.938%
17,CCN(CC)/C(=N/S(=O)(=O)c1ccc(C)cc1)c1ccccc1,5.95%
18,C=CCC1NS(=O)(=O)OC(COC)C1C (stereo not shown),19%
19,Cc1nc2c(-c3ccc(F)cc3)c(C)nn2c(C)c1CCC(=O)Nc1ccccc1,11.2%
20,Cc1ccc(CNC(=O)CSc2c3c(nc4cc(Cl)ccc24)CCCC3)o1,4.2%
21,O=C(COc1ccc2ccccc2c1)N1CCN(C2CCN(Cc3ccccc3)CC2)CC1,-69.6%
22,CC(C)NC(=O)NC(=O)COC(=O)C1CCCN1C(=O)c1cccs1 (stereo not shown),8.04%
23,CCOc1ccc(NC(=O)c2ccc(NS(=O)(=O)c3cccs3)cc2)cc1,12.4%

row,Structure (SMILES),"hERG current change (%, negative = inhibition) at 1uM"
1,Cc1[nH]n(-c2ccccc2)c(=O)c1C(C[N+](=O)[O-])c1ccc(Br)cc1 (stereo not shown),2.06%
2,C/C(=N\NC(=O)CCC(=O)NCc1ccccc1)c1ccco1,14.5%
3,CC(C)N(C(=O)COC(=O)[C@@H]1CC(O)CN1S(=O)(=O)c1ccc(C(C)(C)C)cc1)C(C)C (stereo partly shown),14.7%
4,CC(C)N1CCN(CC#Cc2ccccc2)CC1CCO (stereo not shown),5.43%
5,Cn1nc(C(F)(F)F)c2cc(C(=O)Nc3ccc(F)cc3)sc21,5.59%
6,COc1ccc(C(=O)N/N=C/c2ccccn2)cc1OC,4.54%
7,Cc1ccc(NC(=S)N(CCCN2CCC(C)CC2)Cc2ccco2)cc1,-28.8%
8,CCOc1ccccc1-c1cc(C(=O)N/N=C(\C)c2cccnc2)c2ccccc2n1,8.11%
9,COc1ccc(CN2CC(C(=O)NCCN3CCN(c4ccccc4F)CC3)CC2=O)cc1 (stereo not shown),4.97%
10,S=c1[nH]nc(CN2CCCCC2)n1Cc1ccccc1,4.89%
11,CCN(CC)CCNC(=O)CCCCCn1c(=O)[nH]c2cc(C(=O)OC)ccc2c1=O,0.0728%
12,O=C(CCCN1C(=O)/C(=C/c2cccs2)SC1=S)Nc1cc([N+](=O)[O-])ccc1O,26%
13,CC(NC(=O)C1CSC2(C)CCC(=O)N12)c1ccccc1Cl (stereo not shown),3.77%
14,NC(=O)CSCc1nc2ccccc2s1,18.1%
15,CCC[n+]1c(C)sc2c3c(ccc21)CCCC3.[I-],5.2%
16,O=C(Nc1cccc(-c2cscn2)c1)C1CCN(Cc2ccsc2)CC1,-18.8%
17,N/C(=N\OC(=O)c1cccc(Br)c1)c1ccc([N+](=O)[O-])cc1,16.7%
18,C=CCN1C(=O)C2(OCCCO2)c2c(C)ccc(C)c21,7.91%
19,COCc1cc(C)nc2sc(C(=O)Nc3ccccc3C)c(N)c12,8.84%
20,CCC(C)(C)NC(=O)C(c1ccc(F)cc1)N(Cc1cccs1)C(=O)c1cnccn1 (stereo not shown),3.55%
21,Cc1c(-c2nc(N)nc(Nc3ccccc3F)n2)oc2ccccc12,18.9%
22,CCn1c(=S)[nH]c2cc(C(=O)O)ccc21,9.05%
23,CCOCCCn1c(-c2ccc(Cl)cc2)n[nH]c1=S,1.97%

# From article PMC4336329 (PLoS ONE, 2015)
